Some of the results follow.

The source of these data is the supplement of paper PMC8728848.

Common to all, as to experiment: glycan array binding signal (z-score within array); higher = stronger binding
What all share (conditions): glycan notation: IUPAC condensed, linker removed

For experiment [1], the target named is Neu5Ac9Ac(a2-3)Gal(b1-4)GlcNAc. An outline of the steps:
(§1)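 Columns mapping to the same glycan were averaged after glycan names were converted to IUPAC-condensed notation. The data come from 3228 arrays in the Consortium for Functional Glycomics database, limited to those with an available protein sequence. Binding is reported as a within-array Z-score averaged across arrays of one protein sequence and across linkers.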

Experiment [2] deals with Neu5Ac9Ac(a2-6)Gal(b1-4)GlcNAc. In outline:
as §1

Experiment [3] deals with Neu5Gc(a2-3)Gal(b1-3)GlcNAc. An outline of the steps: as §1
The target in experiment [4] is Neu5Gc(a2-3)Gal(b1-3)[Fuc(a1-4)]GlcNAc. An outline of the steps:
as §1

The target of the next experiment is Neu5Gc(a2-3)Gal(b1-4)Glc. In outline:
as §1

Experiment [5] addresses Neu5Gc(a2-3)Gal(b1-4)GlcNAc. An outline of the steps:
as §1

Experiment [6] addresses Neu5Gc(a2-3)Gal(b1-4)[Fuc(a1-3)]GlcNAc. In outline:
as §1

Experiment [7] addresses Neu5Gc(a2-6)Gal(b1-4)GlcNAc. An outline of the steps:
as §1

Another experiment has as its target Neu5Gc(a2-6)GalNAc. An outline of the steps: as §1
Experiment [8] has as its target Neu5Gc(b2-6)Gal(b1-4)GlcNAc. An outline of the steps:
as §1

B1: NanI (Corynebacterium diphtheriae), C6JSW7 (protein)
chain: MTNTLESNPMTTTTGALTITFATTCDGPLAHIPHHLDLNIIHGRIQGTTAHRRIDAEDPDGLDDGLPHHLCLSVDTTGTHLFIDGYEAFSTTQTEWFDTSELTLNPHGDLTIIDHQILNHAPTPRQARNLAPAAEPLVWFAGSHLSTRDTQRISHLTHGSLRLLMKTRGTGQGGVAFQAHTINGDLTLEIIDGTLIFSVRCHDEDYVRITAPGRWDDGQIYDVVIVCGRGATDIYVDGQQLIHSPGAAFFNDLSGELSVHIGTAASGVRLFGEVQSGMIYPHVFNHHQVQRLATVEPIATQALFDCLLDGAQSYRIPSLITTDSGVIIAGADKRVSIANDAPNDIDFVLRRSVDGGRTWQPPRTILQLPDTACVTDSVLLQDHTTGRIFAFLDQFPAGIGQPNAAFGTGFDADGNRIGHFADGSTCTMPREVDQLEASFFSDPHTAPPGIVFQHPSCHLWMLTSDDDGLTWSTPRDLTPDVKEEWMRFCGTSPGNGIQLQRDTHAGRLLIPMYYTKGDQFFAAALYSDDHGDTWHRGESPDLEMYESTLVEASDGSVLLWARNQHPSGAVAHARSTDGGHSWSQVTFNPNVPEIFSQPNALRVTNPDGIIFANASQLLPFRGRGVLRMSTNDGASWQHNRVFNPRHYVYQCMTQLPDGSIGLLWEREMQGLFFSIIPMTWIMQGYAL
Regarding B1, the “glycan array binding signal (z-score)” value in experiment [1] is -0.533; in experiment [2], -0.403; in experiment [3] it was -0.055; in experiment [4], -0.442; with Neu5Gc(a2-3)Gal(b1-4)Glc, 0.226; in experiment [5], 0.121. The “glycan array binding signal (z-score)” value in experiment [6] was 0.452; in experiment [7] it was -0.588; in the experiment with Neu5Gc(a2-6)GalNAc, 0.185; in experiment [8] it was -0.807.
